Assay results taken from the supplement of paper PMC10369915.
The list shows a part of the results. Rule as the data show it: active = 3.2 or more and inactive = the rest. Most of these values are background signal.

Each binder was assayed against SHP2 C-SH2 domain E139D (assay: enrichment score (SH2-bound / input frequency) (ratio); bacterial display of known human phosphotyrosine sites (pTyr-Var adds point mutants) read by sequencing; higher = stronger binding; tyrosines were phosphorylated by kinases first). Conditions: peptide library: Human pTyr.
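Also: displayed peptides selected on beads carrying the immobilized SH2 domain, with library peptides lacking any tyrosine serving as negative controls.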

Enrichment score, inactive:
DSQQTNDYMQPEEDW [ACTN1_HUMAN_12] 1.44
SSSAASSYSFSDLNS [EMD_HUMAN_59] 0.665
ESIRMKRYILHFHSA [EPHA1_HUMAN_930] 1.91
AYQSITHYRPVSASR [EMD_HUMAN_167] 1.26
AHRSLEQYDQVLDGA [EP15R_HUMAN_564] 0.724
SGASTGIYEALELRD [ENOA_HUMAN_44] 0.572
FLDKQGFYVALRLVA [EP15R_HUMAN_74] 1.77
SVRKGGSYSQAASSD [1A80_HUMAN_344] 0.637
AKSFIKDYPVVSIED [ENOA_HUMAN_287_YA] 0.838
TRGDADMYDLPKKED [EMD_HUMAN_74] 0.981
MYGRDSAYQSITHYR [EMD_HUMAN_161] 0.896
AAQSITHYRPVSASR [EMD_HUMAN_167_YA] 1.23
IPKEPSNYDFVYDCN [ELMO1_HUMAN_720] 1.13
GHTSNNIYEAVKASE [ELP3_HUMAN_202_YA] 0.849
IINQEGEYIKMFMRG [EMAL4_HUMAN_226] 1.2
MAGRDSAYQSITHAR [EMD_HUMAN_161_YA] 0.831
KDRERPMYGRDSAYQ [EMD_HUMAN_155] 1.45
ESIKMQQYTEHFMAA [EPHA2_HUMAN_921] 0.713

These binders were tested against SHP2 C-SH2 domain wild-type in the same assay as above. Conditions: peptide library: Human pTyr.

Enrichment score, inactive:
DSQQTNDYMQPEEDW [ACTN1_HUMAN_12] 1.02
SSSAASSYSFSDLNS [EMD_HUMAN_59] 0.489
ESIRMKRYILHFHSA [EPHA1_HUMAN_930] 1.99
AYQSITHYRPVSASR [EMD_HUMAN_167] 1.74
AHRSLEQYDQVLDGA [EP15R_HUMAN_564] 0.619
SGASTGIYEALELRD [ENOA_HUMAN_44] 0.585
FLDKQGFYVALRLVA [EP15R_HUMAN_74] 1.58
SVRKGGSYSQAASSD [1A80_HUMAN_344] 0.557
AKSFIKDYPVVSIED [ENOA_HUMAN_287_YA] 0.817
TRGDADMYDLPKKED [EMD_HUMAN_74] 0.798
MYGRDSAYQSITHYR [EMD_HUMAN_161] 0.907
AAQSITHYRPVSASR [EMD_HUMAN_167_YA] 1.14
IPKEPSNYDFVYDCN [ELMO1_HUMAN_720] 0.959
GHTSNNIYEAVKASE [ELP3_HUMAN_202_YA] 0.785
IINQEGEYIKMFMRG [EMAL4_HUMAN_226] 0.935
MAGRDSAYQSITHAR [EMD_HUMAN_161_YA] 0.842
KDRERPMYGRDSAYQ [EMD_HUMAN_155] 1.41
ESIKMQQYTEHFMAA [EPHA2_HUMAN_921] 0.693

These binders were tested against SHP2 N-SH2 domain L43F in the same assay as above. Conditions: peptide library: Human pTyr.

Enrichment score, inactive:
DSQQTNDYMQPEEDW [ACTN1_HUMAN_12] 1.01
SSSAASSYSFSDLNS [EMD_HUMAN_59] 0.642
ESIRMKRYILHFHSA [EPHA1_HUMAN_930] 1.78
AYQSITHYRPVSASR [EMD_HUMAN_167] 1.42
AHRSLEQYDQVLDGA [EP15R_HUMAN_564] 0.731
SGASTGIYEALELRD [ENOA_HUMAN_44] 0.594
FLDKQGFYVALRLVA [EP15R_HUMAN_74] 2.1
SVRKGGSYSQAASSD [1A80_HUMAN_344] 0.622
AKSFIKDYPVVSIED [ENOA_HUMAN_287_YA] 1.01
TRGDADMYDLPKKED [EMD_HUMAN_74] 0.831
MYGRDSAYQSITHYR [EMD_HUMAN_161] 0.924
AAQSITHYRPVSASR [EMD_HUMAN_167_YA] 0.856
IPKEPSNYDFVYDCN [ELMO1_HUMAN_720] 0.901
GHTSNNIYEAVKASE [ELP3_HUMAN_202_YA] 0.954
IINQEGEYIKMFMRG [EMAL4_HUMAN_226] 1.03
MAGRDSAYQSITHAR [EMD_HUMAN_161_YA] 0.686
KDRERPMYGRDSAYQ [EMD_HUMAN_155] 1.33
ESIKMQQYTEHFMAA [EPHA2_HUMAN_921] 0.788

Each binder was assayed against SHP2 N-SH2 domain T42A in the same assay as above. Conditions: peptide library: Human pTyr.

Enrichment score, inactive:
DSQQTNDYMQPEEDW [ACTN1_HUMAN_12] 1.19
SSSAASSYSFSDLNS [EMD_HUMAN_59] 0.582
ESIRMKRYILHFHSA [EPHA1_HUMAN_930] 1.74
AYQSITHYRPVSASR [EMD_HUMAN_167] 1.68
AHRSLEQYDQVLDGA [EP15R_HUMAN_564] 0.722
SGASTGIYEALELRD [ENOA_HUMAN_44] 0.527
FLDKQGFYVALRLVA [EP15R_HUMAN_74] 2.17
SVRKGGSYSQAASSD [1A80_HUMAN_344] 0.615
AKSFIKDYPVVSIED [ENOA_HUMAN_287_YA] 0.75
TRGDADMYDLPKKED [EMD_HUMAN_74] 0.705
MYGRDSAYQSITHYR [EMD_HUMAN_161] 0.828
AAQSITHYRPVSASR [EMD_HUMAN_167_YA] 1.3
IPKEPSNYDFVYDCN [ELMO1_HUMAN_720] 0.949
GHTSNNIYEAVKASE [ELP3_HUMAN_202_YA] 0.75
IINQEGEYIKMFMRG [EMAL4_HUMAN_226] 0.846
MAGRDSAYQSITHAR [EMD_HUMAN_161_YA] 0.926
KDRERPMYGRDSAYQ [EMD_HUMAN_155] 1.3
ESIKMQQYTEHFMAA [EPHA2_HUMAN_921] 0.768

What follows are binders tested against SHP2 N-SH2 domain T52S in the same assay as above. Conditions: peptide library: Human pTyr.

Enrichment score, inactive:
DSQQTNDYMQPEEDW [ACTN1_HUMAN_12] 1.08
SSSAASSYSFSDLNS [EMD_HUMAN_59] 0.538
ESIRMKRYILHFHSA [EPHA1_HUMAN_930] 2.08
AYQSITHYRPVSASR [EMD_HUMAN_167] 1.62
AHRSLEQYDQVLDGA [EP15R_HUMAN_564] 0.937
SGASTGIYEALELRD [ENOA_HUMAN_44] 0.6
FLDKQGFYVALRLVA [EP15R_HUMAN_74] 2.26
SVRKGGSYSQAASSD [1A80_HUMAN_344] 0.662
AKSFIKDYPVVSIED [ENOA_HUMAN_287_YA] 0.783
TRGDADMYDLPKKED [EMD_HUMAN_74] 1.36
MYGRDSAYQSITHYR [EMD_HUMAN_161] 0.76
AAQSITHYRPVSASR [EMD_HUMAN_167_YA] 1.15
IPKEPSNYDFVYDCN [ELMO1_HUMAN_720] 1.06
GHTSNNIYEAVKASE [ELP3_HUMAN_202_YA] 0.941
IINQEGEYIKMFMRG [EMAL4_HUMAN_226] 1.17
MAGRDSAYQSITHAR [EMD_HUMAN_161_YA] 1.05
KDRERPMYGRDSAYQ [EMD_HUMAN_155] 1.42
ESIKMQQYTEHFMAA [EPHA2_HUMAN_921] 0.82

These binders were tested against SHP2 N-SH2 domain wild-type in the same assay as above. Conditions: peptide library: Human pTyr.

Enrichment score, inactive:
DSQQTNDYMQPEEDW [ACTN1_HUMAN_12] 1.43
SSSAASSYSFSDLNS [EMD_HUMAN_59] 0.585
ESIRMKRYILHFHSA [EPHA1_HUMAN_930] 2.63
AYQSITHYRPVSASR [EMD_HUMAN_167] 1.83
AHRSLEQYDQVLDGA [EP15R_HUMAN_564] 0.766
SGASTGIYEALELRD [ENOA_HUMAN_44] 0.863
FLDKQGFYVALRLVA [EP15R_HUMAN_74] 2.34
SVRKGGSYSQAASSD [1A80_HUMAN_344] 0.493
AKSFIKDYPVVSIED [ENOA_HUMAN_287_YA] 1.06
TRGDADMYDLPKKED [EMD_HUMAN_74] 0.999
MYGRDSAYQSITHYR [EMD_HUMAN_161] 0.925
AAQSITHYRPVSASR [EMD_HUMAN_167_YA] 1.13
IPKEPSNYDFVYDCN [ELMO1_HUMAN_720] 1.03
GHTSNNIYEAVKASE [ELP3_HUMAN_202_YA] 0.919
IINQEGEYIKMFMRG [EMAL4_HUMAN_226] 0.813
MAGRDSAYQSITHAR [EMD_HUMAN_161_YA] 1.11
KDRERPMYGRDSAYQ [EMD_HUMAN_155] 1.49
ESIKMQQYTEHFMAA [EPHA2_HUMAN_921] 0.699
